{"source": "patent US12502480B1", "about": "“System and method for administration of a substance” (Abusarah, Inc., priority 2025, dated 2025)", "origin": "cited, not measured here", "conditions": "inhalation of 0.35, 0.5 and 0.7 mg/kg; cited from earlier work", "data": [{"smiles": "CN[C@]1(c2ccccc2Cl)CCCCC1=O", "note": "[esketamine, S-ketamine]", "values": [{"measurement": "dose proportionality of Cmax", "value": "approximately dose proportional"}]}]}
